Source: the supplement of paper PMC12217912
This is one part of the list. The full chains were built here from the parent and the listed change. Values near 0.05 are background.

B1: TEV protease; numbered along this chain (parent)
chain: MGESLFKGPRDYNPISSSICHLTNESDGHTTSLYGIGFGPFIITNKHLFRRNNGTLVVQSLHGVFKVKDTTTLQQHLVDGRDMIIIRMPKDFPPFPQKLKFREPQREERICLVTTNFQTKSMSSMVSDTSCTFPSGDGIFWKHWIQTKDGQCGSPLVSTRDGFIVGIHSASNFTNTNNYFTSVPKNFMELLTNQEAQQWVSGWRLNADSVLWGGHKVFMVKPEEPFQPVKEATQL

Variants of: B1
Assay: raw area under fraction-flipped curve 0-4 h after induction (AUC4h, not background-subtracted), DNA-recorder readout of cleavage of the substrate (dimensionless); higher = more cleavage of the substrate by the protease variant
Details: temperature: 34 °C; time window: 0-4 h after rhamnose induction
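Also: Bxb1 expression induced with 0.2% (w/v) L-rhamnose at OD600 near 0.5, cultures sampled hourly, flipped fraction per protease–substrate barcode pair counted by paired-end Illumina sequencing.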

Variant	area with substrate ENLYFCS	area with substrate ENLYFDS	area with substrate ENLYFFS	area with substrate ENLYFGS	area with substrate ENLYFIS	area with substrate ENLYFKS	area with substrate ENLYFMS	area with substrate ENLYFNS	area with substrate ENLYFPS	area with substrate ENLYFRS	area with substrate ENLYFES	area with substrate ENLYFHS	area with substrate ENLYFLS	area with substrate ENLYFVS	area with substrate ENLYFSS	area with substrate ENLYFWS	area with substrate ENLYFTS	area with substrate ENLYFYS
MGESLFKGPRDYNPISSSICHLTNESDGHTTSLYGIGFGPFIITNKHLFRRNNGTLVVQSLHGVFKVKDTTTLQQHLVDGRDMIIIRMPKDFPPFPQKLKFREPQREERICLVTTNFQTKSMSSMVSDTSCTFPSGDGIFWKHWIQTKDGQCGSPLVSTRDGFIVGIHSASNFTNTNNYFTSVPKNFMELLTNQEAQQWVSGWRLNADSVLWGGHKVFMVKPEYPFQPVKEATQL [E224Y]	0.0479	0.0543	0.0726	0.0493	0.0514	0.0664	0.0544	0.0511	0.0603	0.0597								
MGESLFKGPRDYNPISSSICHLTNESDGHTTSLYGIGFGPFIITNKHLFRRNNGTLVVQSLHGVFKVKDTTTLQQHLVDGRDMIIIRMPKDFPPFPQKLKFREPQREERICLVTTNFQTKSMSSMVSDTSCTFPSGDGIFWKHWIQTKDGQCGSPLVSTRDGFIVGIHSASNFTNTNNYFTSVPKNFMELLTNQEAQQWVSGWRLNADSVLWGGHKVFMVKPEEPFQPVKEGTQL [A232G]	0.0621		0.0547	0.0542	0.061		0.0669	0.0805	0.0534		0.0651	0.0563	0.0791	0.0493				
MGESLFKGPRDYNPISSSICHLTNESDGHTTSLYGIGFGPFIITNKHLFRRNNGTLVVQSLHGVFKVKDTTTLQQHLVDGRDMIIIRMPKDFPPFPQKLKFREPQREERICLVTTNFQTKSMSSMVSDTSCTFPSGDGIFWKHWIQTKDGQCGSPLVSTRDGFIVGIHSASNFTNTNNYFTSVPKNFMELLTNQEAQQWVSGWRLNADSVLWGGHKVFMVKPEEPFQPVKEHTQL [A232H]	0.0555	0.0613	0.0629		0.0617		0.0639		0.0553	0.0573		0.0542	0.0818		0.0648	0.0397		
MGESLFKGPRDYNPISSSICHLTNESDGHTTSLYGIGFGPFIITNKHLFRRNNGTLVVQSLHGVFKVKDTTTLQQHLVDGRDMIIIRMPKDFPPFPQKLKFREPQREERICLVTTNFQTKSMSSMVSDTSCTFPSGDGIFWKHWIQTKDGQCGSPLVSTRDGFIVGIHSASNFTNTNNYFTSVPKNFMELLTNQEAQQWVSGWRLNADSVLWGGHKVFMVKPEEPFQPVKENTQL [A232N]	0.0635				0.0388	0.0507			0.0574		0.0672					0.063		
MGESLFKGPRDYNPISSSICHLTNESDGHTTSLYGIGFGPFIITNKHLFRRNNGTLVVQSLHGVFKVKDTTTLQQHLVDGRDMIIIRMPKDFPPFPQKLKFREPQREERICLVTTNFQTKSMSSMVSDTSCTFPSGDGIFWKHWIQTKDGQCGSPLVSTRDGFIVGIHSASNFTNTNNYFTSVPKNFMELLTNQEAQQWVSGWRLNADSVLWGGHKVFMVKPEEPFQPVKESTQL [A232S]	0.0498	0.042	0.0606		0.0563		0.073	0.0793		0.053	0.0661	0.0803			0.0693	0.0524		
MGESLFKKPRDYNPISSSICHLTNESDGHTTSLYGIGFGPFIITNKHLFRRNNGTLVVQSLHGVFKVKDTTTLQQHLVDGRDMIIIRMPKDFPPFPQKLKFREPQREERICLVTTNFQTKSMSSMVSDTSCTFPSGDGIFWKHWIQTKDGQCGSPLVSTRDGFIVGIHSASNFTNTNNYFTSVPKNFMELLTNQEAQQWVSGWRLNADSVLWGGHKVFMVKPEEPFQPVKEATQL [G8K]		0.055	0.0506		0.0534				0.0499	0.063	0.0604		0.0655	0.0573	0.0619	0.0674	0.0634	
MGESLFKGPRDYNPIYSSICHLTNESDGHTTSLYGIGFGPFIITNKHLFRRNNGTLVVQSLHGVFKVKDTTTLQQHLVDGRDMIIIRMPKDFPPFPQKLKFREPQREERICLVTTNFQTKSMSSMVSDTSCTFPSGDGIFWKHWIQTKDGQCGSPLVSTRDGFIVGIHSASNFTNTNNYFTSVPKNFMELLTNQEAQQWVSGWRLNADSVLWGGHKVFMVKPEEPFQPVKEATQL [S16Y]		0.0463	0.067	0.0651	0.0557	0.0761	0.0641	0.0629	0.0576	0.0654	0.0591			0.0652	0.057	0.0697	0.0684	0.0578
MGESLFKGPRDYNPISSSICHLTNESDGHTTSLYGIGFGPFIITNKHLFRRNNGTLVVQSLHGVFKVKDTTTLQQHLVDGRDMIIIRMPKDFPPFPQKLKFREPQREERICLVTTNFQTKSMSSMVSDTSCTFPSGDGIFWKHPIQTKDGQCGSPLVSTRDGFIVGIHSASNFTNTNNYFTSVPKNFMELLTNQEAQQWVSGWRLNADSVLWGGHKVFMVKPEEPFQPVKEATQL [W144P]		0.0552	0.0511		0.0532	0.0595	0.0653		0.0675	0.0656				0.0651	0.0493		0.0474	
MGESLFKGPRDYNPISSSICHLTNESDGHTTSLYGIGFGPFIITNKHLFRRNNGTLVVQSLHGVFKVKDTTTLQQHLVDGRDMIIIRMPKDFPPFPQKLKFREPQREERICLVTTNFQTKSMSSMVSDTSCTFPSGDGIFWKHSIQTKDGQCGSPLVSTRDGFIVGIHSASNFTNTNNYFTSVPKNFMELLTNQEAQQWVSGWRLNADSVLWGGHKVFMVKPEEPFQPVKEATQL [W144S]		0.0579	0.0725		0.0536	0.0744	0.0595	0.0577	0.0575		0.0659	0.0581	0.083	0.0655	0.0655	0.0606	0.0618	0.0541
MGESLFKGPRDYNPISSSICHLTNESDGHTTSLYGIGFGPFIITNKHLFRRNNGTLVVQSLHGVFKVKDTTTLQQHLVDGRDMIIIRMPKDFPPFPQKLKFREPQREERICLVTTNFQTKSMSSMVSDTSCTFPSGDGIFWKHWIQTKDGQMGSPLVSTRDGFIVGIHSASNFTNTNNYFTSVPKNFMELLTNQEAQQWVSGWRLNADSVLWGGHKVFMVKPEEPFQPVKEATQL [C152M]		0.0703	0.0799			0.0537	0.0502	0.035					0.0606		0.0623	0.0546		
MGESLFKGPRDYNPISSSICHLTNESDGHTTSLYGIGFGPFIITNKHLFRRNNGTLVVQSLHGVFKVKDTTTLQQHLVDGRDMIIIRMPKDFPPFPQKLKFREPQREERICLVTTNFQTKSMSSMVSDTSCTFPSGDGIFWKHWIQTKDGQVGSPLVSTRDGFIVGIHSASNFTNTNNYFTSVPKNFMELLTNQEAQQWVSGWRLNADSVLWGGHKVFMVKPEEPFQPVKEATQL [C152V]		0.0579			0.0608	0.0626	0.0446	0.0582	0.067		0.0532		0.0619			0.0514	0.0579	0.0549
MGESLFKGPRDYNPISSSICHLTNESDGHTTSLYGIGFGPFIITNKHLFRRNNGTLVVQSLHGVFKVKDTTTLQQHLVDGRDMIIIRMPKDFPPFPQKLKFREPQREERICLVTTNFQTKSMSSMVSDTSCTFPSGDGIFWKHWIQTKDGQCGSPLVSTRDGFIVGIHSASNFTNRNNYFTSVPKNFMELLTNQEAQQWVSGWRLNADSVLWGGHKVFMVKPEEPFQPVKEATQL [T176R]		0.0579				0.0769	0.0435	0.0933	0.0611						0.0418		0.0508	
MGESLFKGPRDYNPISSSICHLTNESDGHTTSLYGIGFGPFIITNKHLFRRNNGTLVVQSLHGVFKVKDTTTLQQHLVDGRDMIIIRMPKDFPPFPQKLKFREPQREERICLVTTNFQTKSMSSMVSDTSCTFPSGDGIFWKHWIQTKDGQCGSPLVSTRDGFIVGIHSASNFTNTNNYFTSVCKNFMELLTNQEAQQWVSGWRLNADSVLWGGHKVFMVKPEEPFQPVKEATQL [P184C]		0.0697			0.0672		0.0727		0.0705			0.0458			0.0621		0.0627	0.0544
MGESLFKGPRDYNPISSSICHLTNESDGHTTSLYGIGFGPFIITNKHLFRRNNGTLVVQSLHGVFKVKDTTTLQQHLVDGRDMIIIRMPKDFPPFPQKLKFREPQREERICLVTTNFQTKSMSSMVSDTSCTFPSGDGIFWKHWIQTKDGQCGSPLVSTRDGFIVGIHSASNFTNTNNYFTSVPKNFMELLTNQEAQQWVSGWRLNANSVLWGGHKVFMVKPEEPFQPVKEATQL [D208N]		0.0525	0.0656		0.0468	0.0616		0.0782		0.0761	0.0747			0.0507	0.0609	0.0521		0.0546
MGESLFKGPRDYNPISSSICHLTNESDGHTTSLYGIGFGPFIITNKHLFRRNNGTLVVQSLHGVFKVKDTTTLQQHLVDGRDMIIIRMPKDFPPFPQKLKFREPQREERICLVTTNFQTKSMSSMVSDTSCTFPSGDGIFWKHWIQTKDGQCGSPLVSTRDGFIVGIHSASNFTNTNNYFTSVPKNFMELLTNQEAQQWVSGWRLNADSVLWGGHKVFMVKPEHPFQPVKEATQL [E224H]		0.0652	0.066		0.0578		0.08		0.0434	0.0625	0.0631		0.0625	0.0698	0.0445		0.0511	0.0541
MGESLFKGPRDYNPISSSICHLTNESDGHTTSLYGIGFGPFIITNKHLFRRNNGTLVVQSLHGVFKVKDTTTLQQHLVDGRDMIIIRMPKDFPPFPQKLKFREPQREERICLVTTNFQTKSMSSMVSDTSCTFPSGDGIFWKHWIQTKDGQCGSPLVSTRDGFIVGIHSASNFTNTNNYFTSVPKNFMELLTNQEAQQWVSGWRLNADSVLWGGHKVFMVKPEKPFQPVKEATQL [E224K]		0.0539	0.0716	0.0615	0.0582	0.0634	0.0614	0.0582	0.0535	0.0456	0.0617				0.0597	0.0411	0.0576	0.048
MGESLFKGPRDYNPISSSRCHLTNESDGHTTSLYGIGFGPFIITNKHLFRRNNGTLVVQSLHGVFKVKDTTTLQQHLVDGRDMIIIRMPKDFPPFPQKLKFREPQREERICLVTTNFQTKSMSSMVSDTSCTFPSGDGIFWKHWIQTKDGQCGSPLVSTRDGFIVGIHSASNFTNTNNYFTSVPKNFMELLTNQEAQQWVSGWRLNADSVLWGGHKVFMVKPEEPFQPVKEATQL [I19R]			0.0612		0.0474	0.0592	0.0455	0.0556	0.0511	0.0533	0.0445	0.0486	0.0399	0.0461	0.0463	0.0466	0.0442	0.0451
MGESLFKGPRDYNPISSSICHLTNESDGHTTSLYGIGFGPFIITNKHLFRRNNGTLVVQSLHGQFKVKDTTTLQQHLVDGRDMIIIRMPKDFPPFPQKLKFREPQREERICLVTTNFQTKSMSSMVSDTSCTFPSGDGIFWKHWIQTKDGQCGSPLVSTRDGFIVGIHSASNFTNTNNYFTSVPKNFMELLTNQEAQQWVSGWRLNADSVLWGGHKVFMVKPEEPFQPVKEATQL [V64Q]			0.0616		0.0529		0.0679		0.0594	0.0637	0.0842				0.0585	0.057		
MGESLFKGPRDYNPISSSICHLTNESDGHTTSLYGIGFGPFIITNKHLFRRNNGTLVVQSLHGVFKVKDTTTLQQHLVDGRDMIIIRYPKDFPPFPQKLKFREPQREERICLVTTNFQTKSMSSMVSDTSCTFPSGDGIFWKHWIQTKDGQCGSPLVSTRDGFIVGIHSASNFTNTNNYFTSVPKNFMELLTNQEAQQWVSGWRLNADSVLWGGHKVFMVKPEEPFQPVKEATQL [M88Y]			0.0589	0.0514	0.0503			0.0496	0.0495		0.0548		0.0224	0.0507				
